According to article PMC4924737:
No constants are given. Whether binding was seen depends on the method and setting. For part of these data: Binding seen in cells or lysates may run through a third protein. Some binding calls cover weakened binding; strength is not graded here. For part of these data: Tags and fused reporters may be left off the sequences shown.

Amino acid sequences for entries named in this document (tags omitted). A change or cut given only in a name is not applied to a line headed by its entry. Chains listed by the source or under a name are the forms on record and can include a tag or linker.
UniProt Q9Y6E0: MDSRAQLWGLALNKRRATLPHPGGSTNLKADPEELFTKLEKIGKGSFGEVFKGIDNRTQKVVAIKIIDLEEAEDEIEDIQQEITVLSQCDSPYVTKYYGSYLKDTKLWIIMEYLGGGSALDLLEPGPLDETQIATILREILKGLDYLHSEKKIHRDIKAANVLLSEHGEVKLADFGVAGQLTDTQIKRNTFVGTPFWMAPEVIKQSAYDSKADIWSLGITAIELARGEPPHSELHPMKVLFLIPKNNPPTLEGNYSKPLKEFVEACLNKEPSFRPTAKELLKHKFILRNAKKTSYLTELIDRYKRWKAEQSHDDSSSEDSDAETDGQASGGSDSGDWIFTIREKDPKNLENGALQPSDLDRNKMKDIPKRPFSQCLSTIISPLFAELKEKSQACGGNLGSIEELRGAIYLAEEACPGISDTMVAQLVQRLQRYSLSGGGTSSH
Wild-type MST3-HA (Q9Y6E0-2, form named): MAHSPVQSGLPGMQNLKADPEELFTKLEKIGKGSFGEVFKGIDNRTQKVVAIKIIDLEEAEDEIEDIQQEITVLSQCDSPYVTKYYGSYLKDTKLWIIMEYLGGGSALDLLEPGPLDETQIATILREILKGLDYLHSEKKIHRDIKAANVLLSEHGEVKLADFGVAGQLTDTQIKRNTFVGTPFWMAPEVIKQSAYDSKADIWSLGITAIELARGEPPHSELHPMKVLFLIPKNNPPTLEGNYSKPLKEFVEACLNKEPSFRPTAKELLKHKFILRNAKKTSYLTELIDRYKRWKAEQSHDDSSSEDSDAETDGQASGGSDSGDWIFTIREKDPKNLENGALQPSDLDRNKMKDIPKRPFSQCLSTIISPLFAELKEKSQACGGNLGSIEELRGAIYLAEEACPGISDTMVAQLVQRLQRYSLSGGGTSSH

How the values were obtained:
[1] = target: T1, HA-tagged VAV2 (UniProt P52735); experiment: co-IP; HEK293 cells co-transfected with the two tagged proteins; Triton X-100 lysis buffer (50 mM Tris-HCl pH 7.8, 150 mM NaCl, 1% Triton X-100); 0.5 mg total protein, 1 ug anti-myc or anti-HA antibody overnight at 4°C, protein G-Sepharose; immunoblot with anti-myc and anti-HA
T1 sequence: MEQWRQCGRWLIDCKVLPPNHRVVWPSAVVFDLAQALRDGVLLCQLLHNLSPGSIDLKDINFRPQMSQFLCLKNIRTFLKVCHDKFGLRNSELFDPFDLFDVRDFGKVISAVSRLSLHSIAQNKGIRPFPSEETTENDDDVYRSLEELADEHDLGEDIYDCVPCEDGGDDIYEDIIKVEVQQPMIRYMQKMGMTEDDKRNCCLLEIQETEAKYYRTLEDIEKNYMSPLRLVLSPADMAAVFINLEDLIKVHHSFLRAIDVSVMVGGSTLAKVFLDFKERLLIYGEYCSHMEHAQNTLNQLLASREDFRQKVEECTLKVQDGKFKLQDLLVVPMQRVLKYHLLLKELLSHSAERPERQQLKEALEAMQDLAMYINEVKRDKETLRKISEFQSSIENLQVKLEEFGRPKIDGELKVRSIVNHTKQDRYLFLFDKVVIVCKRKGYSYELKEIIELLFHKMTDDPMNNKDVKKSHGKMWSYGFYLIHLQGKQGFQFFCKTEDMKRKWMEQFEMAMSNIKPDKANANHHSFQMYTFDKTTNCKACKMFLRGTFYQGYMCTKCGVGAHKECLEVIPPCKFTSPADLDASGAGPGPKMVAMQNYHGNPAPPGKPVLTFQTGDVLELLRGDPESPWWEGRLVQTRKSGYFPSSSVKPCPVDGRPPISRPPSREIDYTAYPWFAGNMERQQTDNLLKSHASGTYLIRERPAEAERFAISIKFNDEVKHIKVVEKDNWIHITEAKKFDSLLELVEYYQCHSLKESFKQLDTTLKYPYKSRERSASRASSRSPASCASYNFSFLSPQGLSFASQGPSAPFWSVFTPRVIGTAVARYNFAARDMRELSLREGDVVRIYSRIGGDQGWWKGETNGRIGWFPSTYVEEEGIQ

[2] = target: myc-tagged MST3 (mammalian STE20-like kinase 3) (UniProt Q9Y6E0); experiment: as above
[3] = target: Endogenous MST3 (human (endogenous in MDA-MB-231)) (UniProt Q9Y6E0); experiment: co-IP; endogenous proteins; 1 mg total protein from MDA-MB-231 cells, 1 ug anti-MST3 antibody, protein G-Sepharose; immunoblot with anti-MST3 or anti-VAV2
[4] = target: Purified recombinant MST3 (baculovirus-expressed) (UniProt Q9Y6E0); experiment: co-IP; in vitro pull-down: 0.5 ug baculovirus-expressed MST3 and 1 ug recombinant VAV2 mixed in 100 ul PBS with protease inhibitors, room temperature 10 min; 0.5 ug anti-MST3 monoclonal antibody 3 hr at 4°C, protein G-Sepharose; washed with Triton X-100 lysis buffer; both purified
[5] = target: Wild-type MST3-HA (UniProt Q9Y6E0); experiment: co-IP; HEK293 cells co-transfected with the two tagged proteins; Triton X-100 lysis buffer (50 mM Tris-HCl pH 7.8, 150 mM NaCl, 1% Triton X-100); 0.5 mg total protein, 1 ug anti-myc or anti-HA antibody overnight at 4°C, protein G-Sepharose; immunoblot with anti-myc and anti-HA

In the case of “myc-tagged MST3 (mammalian STE20-like kinase 3) (from UniProt Q9Y6E0-2 1-431)”, the binding [1] is reported as “binds”.

B1: HA-tagged VAV2 (protein, UniProt P52735 1-878)
chain: MEQWRQCGRWLIDCKVLPPNHRVVWPSAVVFDLAQALRDGVLLCQLLHNLSPGSIDLKDINFRPQMSQFLCLKNIRTFLKVCHDKFGLRNSELFDPFDLFDVRDFGKVISAVSRLSLHSIAQNKGIRPFPSEETTENDDDVYRSLEELADEHDLGEDIYDCVPCEDGGDDIYEDIIKVEVQQPMIRYMQKMGMTEDDKRNCCLLEIQETEAKYYRTLEDIEKNYMSPLRLVLSPADMAAVFINLEDLIKVHHSFLRAIDVSVMVGGSTLAKVFLDFKERLLIYGEYCSHMEHAQNTLNQLLASREDFRQKVEECTLKVQDGKFKLQDLLVVPMQRVLKYHLLLKELLSHSAERPERQQLKEALEAMQDLAMYINEVKRDKETLRKISEFQSSIENLQVKLEEFGRPKIDGELKVRSIVNHTKQDRYLFLFDKVVIVCKRKGYSYELKEIIELLFHKMTDDPMNNKDVKKSHGKMWSYGFYLIHLQGKQGFQFFCKTEDMKRKWMEQFEMAMSNIKPDKANANHHSFQMYTFDKTTNCKACKMFLRGTFYQGYMCTKCGVGAHKECLEVIPPCKFTSPADLDASGAGPGPKMVAMQNYHGNPAPPGKPVLTFQTGDVLELLRGDPESPWWEGRLVQTRKSGYFPSSSVKPCPVDGRPPISRPPSREIDYTAYPWFAGNMERQQTDNLLKSHASGTYLIRERPAEAERFAISIKFNDEVKHIKVVEKDNWIHITEAKKFDSLLELVEYYQCHSLKESFKQLDTTLKYPYKSRERSASRASSRSPASCASYNFSFLSPQGLSFASQGPSAPFWSVFTPRVIGTAVARYNFAARDMRELSLREGDVVRIYSRIGGDQGWWKGETNGRIGWFPSTYVEEEGIQ
With B1 the binding [2] was “binds”.

B2: Endogenous VAV2 (protein, UniProt P52735 1-878)
chain: MEQWRQCGRWLIDCKVLPPNHRVVWPSAVVFDLAQALRDGVLLCQLLHNLSPGSIDLKDINFRPQMSQFLCLKNIRTFLKVCHDKFGLRNSELFDPFDLFDVRDFGKVISAVSRLSLHSIAQNKGIRPFPSEETTENDDDVYRSLEELADEHDLGEDIYDCVPCEDGGDDIYEDIIKVEVQQPMIRYMQKMGMTEDDKRNCCLLEIQETEAKYYRTLEDIEKNYMSPLRLVLSPADMAAVFINLEDLIKVHHSFLRAIDVSVMVGGSTLAKVFLDFKERLLIYGEYCSHMEHAQNTLNQLLASREDFRQKVEECTLKVQDGKFKLQDLLVVPMQRVLKYHLLLKELLSHSAERPERQQLKEALEAMQDLAMYINEVKRDKETLRKISEFQSSIENLQVKLEEFGRPKIDGELKVRSIVNHTKQDRYLFLFDKVVIVCKRKGYSYELKEIIELLFHKMTDDPMNNKDVKKSHGKMWSYGFYLIHLQGKQGFQFFCKTEDMKRKWMEQFEMAMSNIKPDKANANHHSFQMYTFDKTTNCKACKMFLRGTFYQGYMCTKCGVGAHKECLEVIPPCKFTSPADLDASGAGPGPKMVAMQNYHGNPAPPGKPVLTFQTGDVLELLRGDPESPWWEGRLVQTRKSGYFPSSSVKPCPVDGRPPISRPPSREIDYTAYPWFAGNMERQQTDNLLKSHASGTYLIRERPAEAERFAISIKFNDEVKHIKVVEKDNWIHITEAKKFDSLLELVEYYQCHSLKESFKQLDTTLKYPYKSRERSASRASSRSPASCASYNFSFLSPQGLSFASQGPSAPFWSVFTPRVIGTAVARYNFAARDMRELSLREGDVVRIYSRIGGDQGWWKGETNGRIGWFPSTYVEEEGIQ
With B2 the binding [3] was “binds”.

B3: Purified recombinant VAV2 protein (OriGene) (protein, UniProt P52735 1-878)
chain: MEQWRQCGRWLIDCKVLPPNHRVVWPSAVVFDLAQALRDGVLLCQLLHNLSPGSIDLKDINFRPQMSQFLCLKNIRTFLKVCHDKFGLRNSELFDPFDLFDVRDFGKVISAVSRLSLHSIAQNKGIRPFPSEETTENDDDVYRSLEELADEHDLGEDIYDCVPCEDGGDDIYEDIIKVEVQQPMIRYMQKMGMTEDDKRNCCLLEIQETEAKYYRTLEDIEKNYMSPLRLVLSPADMAAVFINLEDLIKVHHSFLRAIDVSVMVGGSTLAKVFLDFKERLLIYGEYCSHMEHAQNTLNQLLASREDFRQKVEECTLKVQDGKFKLQDLLVVPMQRVLKYHLLLKELLSHSAERPERQQLKEALEAMQDLAMYINEVKRDKETLRKISEFQSSIENLQVKLEEFGRPKIDGELKVRSIVNHTKQDRYLFLFDKVVIVCKRKGYSYELKEIIELLFHKMTDDPMNNKDVKKSHGKMWSYGFYLIHLQGKQGFQFFCKTEDMKRKWMEQFEMAMSNIKPDKANANHHSFQMYTFDKTTNCKACKMFLRGTFYQGYMCTKCGVGAHKECLEVIPPCKFTSPADLDASGAGPGPKMVAMQNYHGNPAPPGKPVLTFQTGDVLELLRGDPESPWWEGRLVQTRKSGYFPSSSVKPCPVDGRPPISRPPSREIDYTAYPWFAGNMERQQTDNLLKSHASGTYLIRERPAEAERFAISIKFNDEVKHIKVVEKDNWIHITEAKKFDSLLELVEYYQCHSLKESFKQLDTTLKYPYKSRERSASRASSRSPASCASYNFSFLSPQGLSFASQGPSAPFWSVFTPRVIGTAVARYNFAARDMRELSLREGDVVRIYSRIGGDQGWWKGETNGRIGWFPSTYVEEEGIQ
With B3 the binding [4] was “binds”.

B4: HA-tagged VAV3 (protein, UniProt Q9UKW4 1-847)
chain: MEPWKQCAQWLIHCKVLPTNHRVTWDSAQVFDLAQTLRDGVLLCQLLNNLRAHSINLKEINLRPQMSQFLCLKNIRTFLTACCETFGMRKSELFEAFDLFDVRDFGKVIETLSRLSRTPIALATGIRPFPTEESINDEDIYKGLPDLIDETLVEDEEDLYDCVYGEDEGGEVYEDLMKAEEAHQPKCPENDIRSCCLAEIKQTEEKYTETLESIEKYFMAPLKRFLTAAEFDSVFINIPELVKLHRNLMQEIHDSIVNKNDQNLYQVFINYKERLVIYGQYCSGVESAISSLDYISKTKEDVKLKLEECSKRANNGKFTLRDLLVVPMQRVLKYHLLLQELVKHTTDPTEKANLKLALDAMKDLAQYVNEVKRDNETLREIKQFQLSIENLNQPVLLFGRPQGDGEIRITTLDKHTKQERHIFLFDLAVIVCKRKGDNYEMKEIIDLQQYKIANNPTTDKENKKWSYGFYLIHTQGQNGLEFYCKTKDLKKKWLEQFEMALSNIRPDYADSNFHDFKMHTFTRVTSCKVCQMLLRGTFYQGYLCFKCGARAHKECLGRVDNCGRVNSGEQGTLKLPEKRTNGLRRTPKQVDPGLPKMQVIRNYSGTPPPALHEGPPLQLQAGDTVELLKGDAHSLFWQGRNLASGEVGFFPSDAVKPCPCVPKPVDYSCQPWYAGAMERLQAETELINRVNSTYLVRHRTKESGEYAISIKYNNEAKHIKILTRDGFFHIAENRKFKSLMELVEYYKHHSLKEGFRTLDTTLQFPYKEPEHSAGQRGNRAGNSLLSPKVLGIAIARYDFCARDMRELSLLKGDVVKIYTKMSANGWWRGEVNGRVGWFPSTYVEEDE
For B4, the binding [2] was “no binding”.

B5: 1-580-VAV2-myc (domain or fragment, UniProt P52735 1-580)
chain: MEQWRQCGRWLIDCKVLPPNHRVVWPSAVVFDLAQALRDGVLLCQLLHNLSPGSIDLKDINFRPQMSQFLCLKNIRTFLKVCHDKFGLRNSELFDPFDLFDVRDFGKVISAVSRLSLHSIAQNKGIRPFPSEETTENDDDVYRSLEELADEHDLGEDIYDCVPCEDGGDDIYEDIIKVEVQQPMIRYMQKMGMTEDDKRNCCLLEIQETEAKYYRTLEDIEKNYMSPLRLVLSPADMAAVFINLEDLIKVHHSFLRAIDVSVMVGGSTLAKVFLDFKERLLIYGEYCSHMEHAQNTLNQLLASREDFRQKVEECTLKVQDGKFKLQDLLVVPMQRVLKYHLLLKELLSHSAERPERQQLKEALEAMQDLAMYINEVKRDKETLRKISEFQSSIENLQVKLEEFGRPKIDGELKVRSIVNHTKQDRYLFLFDKVVIVCKRKGYSYELKEIIELLFHKMTDDPMNNKDVKKSHGKMWSYGFYLIHLQGKQGFQFFCKTEDMKRKWMEQFEMAMSNIKPDKANANHHSFQMYTFDKTTNCKACKMFLRGTFYQGYMCTKCGVGAHKECLEVIPPCKFTSPADL
In the case of B5, the binding [5] is reported as “no binding”.
